# Some of the results follow.
# Molecular target: T1, OsWOX13 (Oryza sativa, UniProt Q5QMM3 1-267)
# T1 sequence: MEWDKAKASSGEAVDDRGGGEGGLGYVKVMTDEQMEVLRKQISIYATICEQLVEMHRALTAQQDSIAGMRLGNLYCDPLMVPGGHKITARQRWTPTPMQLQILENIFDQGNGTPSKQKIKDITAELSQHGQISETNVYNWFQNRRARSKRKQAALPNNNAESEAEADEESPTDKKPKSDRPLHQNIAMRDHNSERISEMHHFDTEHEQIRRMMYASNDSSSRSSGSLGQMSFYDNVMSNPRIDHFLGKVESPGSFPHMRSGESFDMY
# Assay: protein-binding microarray (RPBM); PBS, 2% BSA, 51.3 ng/ul salmon testes DNA, 50 uM zinc acetate, 200 nM TF, 25 C, 1 h; high values mean tight binding
# Details: protein: recombinant; tags: N-terminal polyhistidine and DsRed monomer fusion (pET32a); label: CyDye5-dUTP incorporated in the synthesized complementary strand; 3' TTTTT single-stranded linker to array surface; dsDNA, one strand shown
# Method in brief: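 Per-feature fluorescence intensity (arbitrary units), read on an Axon 4000B scanner, is the binding signal. Transcription factors carrying an N-terminal polyhistidine tag and DsRed fusion were expressed in E. coli BL21-CodonPlus and purified on Ni–NTA. A custom Agilent array, made double-stranded by primer extension with Cy5-dUTP and blocked with 2% BSA, was incubated with 200 nM protein in PBS, 2% BSA, salmon testes DNA and 50 µM zinc acetate at 25 °C for 1 h and then washed.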
row,Sequence,binding signal
1,AAAATTACAATGACATGGATCCAATTGATCCTATTAAACCCGGAGTCACCTAGTGCAG,8360 fluorescence intensity (a.u.)
2,AGATTCCTGTCATGTGTCCAATTAAGGCTTTGTTCATCGTCGGAGTCACCTAGTGCAG,4440 fluorescence intensity (a.u.)
3,GTTTGACCAATCTTCAGCTTTGATTGAGACGCTGACTTTTCGGAGTCACCTAGTGCAG,33000 fluorescence intensity (a.u.)
4,CAATTTTATTTTCTGTTATCTGATTTGTGTTACCATGACGCGGAGTCACCTAGTGCAG,4250 fluorescence intensity (a.u.)
5,GATCAATTATCGGCACTACCTGCTCGGCTAGAGCTTTGCCCGGAGTCACCTAGTGCAG,10500 fluorescence intensity (a.u.)
6,CTAATAATATAGATATTTAAATTAGGTAATTAGTAAATTCCGGAGTCACCTAGTGCAG,9480 fluorescence intensity (a.u.)
7,CGTTAATTACACCGCGTAACCCTGGTTAGTTATCTTTGGACGGAGTCACCTAGTGCAG,35800 fluorescence intensity (a.u.)
8,AGGGGTAATTTATGTAAATATTTTGGATGGTATAATATTTCGGAGTCACCTAGTGCAG,14600 fluorescence intensity (a.u.)
9,AAAATTGACATCACTTCCAGATTGGATGTTTATAGAAATGCGGAGTCACCTAGTGCAG,5500 fluorescence intensity (a.u.)
10,GGAAATTTGGGCTAAATTTCTGGGCGTGACAGACGATGGCCGGAGTCACCTAGTGCAG,13000 fluorescence intensity (a.u.)
11,TATCTAATAATTGGATGGTTACAACCAAATACTTCTACATCGGAGTCACCTAGTGCAG,25800 fluorescence intensity (a.u.)
12,ACTATTATTGTTTGTCAAGTTCGTTTATTAATCCGATGTCCGGAGTCACCTAGTGCAG,3950 fluorescence intensity (a.u.)
13,TTGTGATTATTTCCTACCATTATACGAAAGTATAATAGTACGGAGTCACCTAGTGCAG,13000 fluorescence intensity (a.u.)
14,AATCAGTTTTAAATTTAAGATTACAAATTTAAATTTTGGTCGGAGTCACCTAGTGCAG,16200 fluorescence intensity (a.u.)
15,GACAGCTAATTTAGTCAGTAAGAACCAATTGCAAATCCTGCGGAGTCACCTAGTGCAG,6060 fluorescence intensity (a.u.)
16,TTCGGATAATTACTCAGTAGCATACCCTTCGAATGAATCACGGAGTCACCTAGTGCAG,4900 fluorescence intensity (a.u.)
17,CCATAAATTAATCACAAGGCACCAGCCCCACCCTCTCTCCCGGAGTCACCTAGTGCAG,13300 fluorescence intensity (a.u.)
18,CAGTTTGACAGTCACAAGAATAATTGGCCATCGCATCTCGCGGAGTCACCTAGTGCAG,14900 fluorescence intensity (a.u.)
19,GGAGTATATAATTAACATAAATCTGCATGGACATATAGTTCGGAGTCACCTAGTGCAG,7120 fluorescence intensity (a.u.)
20,AGTTTGTTAAACCGTGGATTGACTCATGACTTATCTACTACGGAGTCACCTAGTGCAG,9020 fluorescence intensity (a.u.)
21,ACAAATTACAGATTCCGCTTGTAAACTGCAAGACGAATTTCGGAGTCACCTAGTGCAG,8660 fluorescence intensity (a.u.)
22,GTGTATCATCTAGGTCCTAAATTGACACATCCCCTCTAGGCGGAGTCACCTAGTGCAG,10100 fluorescence intensity (a.u.)
23,TATATATATATATATATATATATATATAAAACAATGTAAACGGAGTCACCTAGTGCAG,16800 fluorescence intensity (a.u.)
24,AGAAATTAAATTTAATCAGCACAGATCAACACACGTAAGTCGGAGTCACCTAGTGCAG,37700 fluorescence intensity (a.u.)
25,CAAGCTGATTATAGAGGCCATTGTTAGAAAATCCGTCTCTCGGAGTCACCTAGTGCAG,4350 fluorescence intensity (a.u.)
26,TCAATAAATCATAAAACAAATTTATTAAGCCTAATTAATCCGGAGTCACCTAGTGCAG,14000 fluorescence intensity (a.u.)
27,TTCAAAATCAATTACTCAGTTTCAGTTTCTTTCTACGATTCGGAGTCACCTAGTGCAG,11600 fluorescence intensity (a.u.)

row,Sequence,binding signal
1,AATACATGACTACAGATTTGATTAGATTCCATCTTTACATCGGAGTCACCTAGTGCAG,10200 fluorescence intensity (a.u.)
2,AATATATACATAAACAAATTATTATTATAATTCTGCCTCCCGGAGTCACCTAGTGCAG,3580 fluorescence intensity (a.u.)
3,CCGAACAAGAGGTGACTGTGATAATCATATTGGTCTCACCCGGAGTCACCTAGTGCAG,4680 fluorescence intensity (a.u.)
4,AAGTTAATTTTAGGTATCTTTTCGTAGTTTATTTTCTAGCCGGAGTCACCTAGTGCAG,13700 fluorescence intensity (a.u.)
5,CTTATCAATCTGTTTATTAATATTTACGCAGTATTGCAGTCGGAGTCACCTAGTGCAG,14500 fluorescence intensity (a.u.)
6,TGTTGGTGCTGTGATTAATTGGTAATCTGCTTTTACAAGCCGGAGTCACCTAGTGCAG,19800 fluorescence intensity (a.u.)
7,TCTTCTAATTTGTTTTGCGTGGAGAGCATAGCTTAGGATACGGAGTCACCTAGTGCAG,7680 fluorescence intensity (a.u.)
8,TGCGTTATTATGTGATTGTTGATGCTTATTCTACGTTAAGCGGAGTCACCTAGTGCAG,12300 fluorescence intensity (a.u.)
9,ACTGGACCTTAATTATGATTGTTAGGGACGGATCGGTCGTCGGAGTCACCTAGTGCAG,21000 fluorescence intensity (a.u.)
10,TTGTTGTTTACCGTCACACTTAATTACCAGGTCATTTACACGGAGTCACCTAGTGCAG,3380 fluorescence intensity (a.u.)
11,TCCAATTACATCAAAGTGATATAACTGTATTGAGAACACTCGGAGTCACCTAGTGCAG,11700 fluorescence intensity (a.u.)
12,GACATCGATTGATAGAGACACCGACGCTGTGATGATGGTGCGGAGTCACCTAGTGCAG,31400 fluorescence intensity (a.u.)
13,GTAGATTGCCCAACCCGCACCGCTTAGCCAACGCCCCGCCCGGAGTCACCTAGTGCAG,12000 fluorescence intensity (a.u.)
14,TCAAATTTGATCATTTTGGAATGGAAGGAGTAGTACTTAGCGGAGTCACCTAGTGCAG,16800 fluorescence intensity (a.u.)
15,ATTATTCCGATTGGAAATGATTTTGCCCAAGATTATGGAACGGAGTCACCTAGTGCAG,7280 fluorescence intensity (a.u.)
16,ACCTCCAATAATTGTTCTACTCCAAGCGTTCACAGCTACTCGGAGTCACCTAGTGCAG,7090 fluorescence intensity (a.u.)
17,AAAATAAACAGATCCGGTTGAAGTTCATCAGTAGTTTAGGCGGAGTCACCTAGTGCAG,17700 fluorescence intensity (a.u.)
18,ACTCTTGACAGGAAGCTATCTTGGAATGGTATATATTGCTCGGAGTCACCTAGTGCAG,13800 fluorescence intensity (a.u.)
19,ATTTTAAATTTATTATATGATGATTAATTTGGGAATGAGGCGGAGTCACCTAGTGCAG,28400 fluorescence intensity (a.u.)
20,GGTTCAGTGATATGATTTAAACTCGACCCTTAGACGAGAGCGGAGTCACCTAGTGCAG,9820 fluorescence intensity (a.u.)
21,GATAATGATATGACCATGGTGATTTCGTCAATCTCAATACCGGAGTCACCTAGTGCAG,12100 fluorescence intensity (a.u.)
22,TAATAAATTGTTAACAGAAATTATATTTAAATGTTCATTACGGAGTCACCTAGTGCAG,24100 fluorescence intensity (a.u.)
23,ACCATCGATTTAATTTGACTGTTGATCATAATAATATATCCGGAGTCACCTAGTGCAG,11200 fluorescence intensity (a.u.)
24,ATCAGATTTCTGATAGGACAGGACTAGAGGAACAGGCCGGCGGAGTCACCTAGTGCAG,3500 fluorescence intensity (a.u.)
25,TTTTGATTTTGATTAAAGTCAAATTACTTTAAATATGACACGGAGTCACCTAGTGCAG,21800 fluorescence intensity (a.u.)
26,TGAAGAACGTTACTCTAATTAGTAAAACTACCGTCCACGTCGGAGTCACCTAGTGCAG,4040 fluorescence intensity (a.u.)
27,ATGGTGATTGGGAGGGTGAATCAGAGTGACTAAAAGAAATCGGAGTCACCTAGTGCAG,23300 fluorescence intensity (a.u.)
